This note sets out measurements from PubChem BioAssay (NCI).

“And” between values parts separate entries of the source, which are not always exact repeats. Equal values may be shown once.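 Protocol summary: plate cells (96-well), add compound at 5 concentrations, incubate 48 h, interpolate endpoints linearly. GI50 = concentration required for 50% inhibition of growth. The concentration for full growth arrest is given as TGI.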 Peptide text beside a SMILES is read from it. * marks the point of attachment. Boc = CC(C)(C)OC(=O)*

The test concerns NCI-H322M lung. Nature of the test: inhibition of tumour cell growth, NCI panel, 48 h.
With `COC1=CC(c2ccc[nH]2)=N/C1=C\c1[nH]c(C)c(C(=O)CCC(=O)Oc2ccc3c(c2)CCC2C3CC[C@]3(C)[C@@H](O)CC[C@@H]23)c1C` (some centres not stated), the GI50 was 6.17 µM and the TGI was above 100 µM.

In the case of `Cn1cc(C2=C(c3c4n(c5ccccc35)CCNC4)C(=O)NC2=O)c2ccccc21`, the GI50 is 12.2 µM and the TGI is above 25 µM.

Turning to `COc1cccc2c1OC1Sc3ccccc3-c3nn(-c4ccccc4)c-2c31` (configuration not stated), the TGI was above 100 µM.

The compound `Cc1cc2cc3cc(C)c(N)cc3nc2cc1N` had a TGI of 1.82 µM.

Take `Cc1ccc(/C=C/C(=O)Oc2ccc(/C=C3\CCC/C(=C\c4ccc(OC(=O)/C=C/c5ccc(C)cc5)cc4)C3=O)cc2)cc1`: the TGI was above 100 µM.

Consider `COC(=O)CN(CC(=O)NCCCBr)C1CCCCC1N(CC(=O)OC)CC(=O)OC` (configuration not stated), for which the TGI is above 100 µM.

`O=C(COc1ccccc1Cl)N1N=C(c2ccccc2)CC1(O)c1ccccc1` (configuration not stated) yielded a TGI of 39.9 µM.

As to `O=C([O][Hg][c]1ccccc1)c1ccccc1`, the GI50 was 6.97 µM and the TGI is 20.3 µM.

The compound `OCC1OC2c3ccccc3COC2C1OCc1ccccc1` (configuration not stated) gave a TGI above 100 µM.

In turn, `O=C(C=Nc1ccccc1C(=O)[O-])c1cccs1.O=C(C=Nc1ccccc1C(=O)[O-])c1cccs1.[Ni+2]` showed a TGI above 100 µM.

On to `CCn1c(-c2nonc2N)nc2c(C#CC(C)(C)O)ncc(OC3CCNCC3)c21`, for which the GI50 was above 22.9 µM and the TGI was above 25 µM.

`CNC(=O)N(CCC#N)CCN(C(=O)NC)c1ccccc1` displayed a TGI above 100 µM.

On to `Cc1nn(C(=O)c2ccccc2O)c2c1C(c1ccc(O)cc1O)SC(N)=N2` (configuration not stated), for which the TGI is above 10 µM.

Regarding `N#CC1C[C@@H]2CC3(CCC2CN1C(=O)c1ccccc1)OCCO3` (some centres not stated), the TGI was above 100 µM.

In the case of `O=C(CN1CCN(Cc2ccccc2Cl)CC1)NC1CC(=O)c2c(Br)sc(Br)c21` (configuration not stated), the GI50 is 19.8 µM and the TGI amounted to 35.3 µM.

`CCN1c2ccccc2NC(=S)c2c1n[nH]c2-c1ccccc1` displayed a TGI above 100 µM.

For the compound `COc1ccc(/C=C/C(=O)c2c(O)ccc3c(C)c(C(=O)O)oc23)cc1`, the GI50 was 45.6 µM and the TGI is above 100 µM.

The compound `N#CCCN(CCC#N)c1ccc(/C=C(/NC(=O)c2cc([N+](=O)[O-])ccc2Cl)C(=O)NN)cc1` came in with a TGI above 100 µM.

With `CC1=NN(C(=O)Cc2ccccc2)C(=O)/C1=C\c1ccc([N+](=O)[O-])cc1`, the TGI is above 100 µM.

As for `COc1ccc2c(c1)[n+]([O-])c(-c1cccc(Cl)c1)c(N)[n+]2[O-]`, the TGI was above 100 µM.

As to `CN(C)Cc1c(O)ccc2c1c1c(n2C)C(=O)c2ccccc2C1=O`, the TGI was 49.4 µM.

For `N#Cc1c(NCc2ccccc2)nc(NCc2ccccc2)c(C#N)c1-c1ccc(Cl)cc1`, the GI50 is above 100 µM and the TGI is above 100 µM.

Compound `COc1cc2c(NCCCCCO)ncnc2c(OC)c1OC` came in with a TGI above 100 µM.

As to `Cn1c(-c2ccc[se]2)ccc1-c1ccc(C=O)[se]1`, the TGI is above 100 µM.

Regarding `Oc1c(C(Nc2ccccn2)c2cccc(Oc3ccccc3)c2)ccc2cccnc12` (configuration not stated), the GI50 was 0.554 µM and the TGI was 19.2 µM.

On to `CC(=O)OCC12CN(C#N)C3C4COC(CC41)C1(C(=O)N(C)c4ccccc41)C32` (configuration not stated), for which the TGI was above 100 µM.

Consider `O=C1/C(=C/c2ccc(O)cc2)CCCC1CN1CCCCC1` (configuration not stated), for which the TGI is 31.2 µM.

Regarding `O=C(CCCn1c2c(sc3ccccc32)c(=O)n2nnc(-c3ccccc3)c12)NCCc1cnc[nH]1`, the GI50 is 2.21 µM and the TGI was determined as 7.87 µM.

On to `CSc1ncc2c(n1)-c1ccccc1OC2N1CCOCC1` (configuration not stated), for which the TGI was above 100 µM.

The compound `COC(=O)CNC(=O)C(Cc1ccccc1)NC(=O)c1ccc(-c2ccc(Cl)cc2Cl)o1` (configuration not stated) showed a TGI of 71.4 µM.

`CN(C)C(=O)Oc1c(Br)cc(Br)cc1C(=O)OCc1ccccc1` returned a TGI above 100 µM.

As to `O=P(O)(O)c1ccc(-c2ccc(I)cc2)cc1`, the TGI is above 100 µM.

For `CCCCCCC1N=C(N)N=C(N)N1c1cccc(Cl)c1` (configuration not stated), the GI50 was 0.236 µM and the TGI is 36 µM.

Compound `COc1ccc2c(c1)Oc1cc(O)ccc1[C@H]2c1ccccc1C(=O)NC(C)c1ccccc1` (some centres not stated) registered a TGI of 31.8 µM.

Consider `CC1=C/C=C/C(=O)O[C@@H]([C@H](C)[C@H](O)[C@@H](C)NC(=O)C(C)C)[C@H](C)/C=C/C(C)=C/[C@H]2C=CCC[C@@]2(C)\C=C\1`, for which the GI50 was 1.03 µM and 4.72 µM; the TGI was above 42.3 µM.

In the case of `O=c1[nH]c(=O)c2ncn(-c3ccc([N+](=O)[O-])cn3)c2[nH]1`, the TGI is above 100 µM.

Regarding `CC(C)C(Nc1ncnc2nc[nH]c12)C(=O)O` (configuration not stated), the TGI was above 100 µM.

Take `COc1cccc2c1NC(=O)Cc1c-2[nH]c2ccccc12`: the TGI is above 100 µM.

Consider `COc1ccc(Nc2nc3cc(C(F)(F)F)ccc3nc2-c2ccccc2)cc1OC`, for which the TGI was above 100 µM.

In turn, `COC(=O)C1CSC(c2csc(CCN)n2)=N1` (configuration not stated) returned a TGI above 100 µM.

With `CCCCCCCCCCCCCC[n+]1ccccc1`, the GI50 is 1.93 µM and the TGI was found to be 4.62 µM.

`CN(c1ccccc1)S(=O)(=O)c1ccc([N+](=O)[O-])cc1` displayed a TGI above 100 µM.

With `ClCCCSSCCCCl`, the TGI is above 100 µM.

`COC(C/C(=C/CO[Si](C(C)C)(C(C)C)C(C)C)C(=O)N(C(=O)OC(C)(C)C)c1ccccc1I)OC`: the TGI is above 100 µM.

As for `N[C@H]1c2c(Br)sc(Br)c2C(=O)[C@H]1O`, the TGI was determined as 38 µM.

For the compound `O=C1Nc2ccccc2/C1=C\c1c(-c2ccccc2)nc2sccn12`, the GI50 was 4.97 µM and the TGI was found to be 16.8 µM.

`COc1ccc(-n2c(SC(CN3CCOCC3)CN3CCCC3=O)nc3ccccc3c2=O)cc1` (configuration not stated) had a TGI above 100 µM.

Compound `Cc1ccccc1NC(=O)Cc1csc(N/N=C2\NC(=O)/C(=C/c3cccc([N+](=O)[O-])c3)S2)n1` registered a TGI above 100 µM.

For `COc1ccc2c(c1)N(Cc1ccc(Cl)cc1)CCC2N1CCCC1=O` (configuration not stated), the GI50 was 4.05 µM and the TGI was above 100 µM.

Compound `CCn1c2nc(=O)n(CCCCCCCCSC(c3ccccc3)(c3ccccc3)c3ccccc3)c(=O)c-2nc2ccccc21` yielded a TGI above 100 µM.

Take `Cn1c2ccc(F)cc2c2ccc3c(c21)C(=O)C=CC3=O`: the TGI is above 88.8 µM.

Regarding `COc1cc(OC)cc(Oc2cnc3cc(N)cc(N)c3n2)c1`, the GI50 is 22.8 µM and the TGI worked out at 92.7 µM.

The compound `COC1=C[C@]2(CCC(=O)O2)[C@@H]2Cc3ccccc3[C@H](O)[C@@H]2C1=O` displayed a TGI above 100 µM.

As to `COc1cc2c3c(n(CCCN4CCNCC4)c(=O)c2cc1OC)-c1cc2c(cc1C3=O)OCO2`, the GI50 is 5.47 µM and the TGI came to 12.2 µM.

With `OCc1ccc(-c2csc(-c3ccc(CO)o3)c2)o1`, the GI50 is 19.6 µM and the TGI was above 100 µM.

The compound `CCOC(=O)c1[nH]cc(C)c1-c1cccn1-c1ccc(Cl)cc1[N+](=O)[O-]` yielded a TGI above 100 µM.

`O=C(NC(=S)Nc1ccc([N+](=O)[O-])cc1)c1ccc2c(c1)Sc1ccccc1O2` had a TGI above 100 µM.

Compound `CC1CCC2C(C)C(=O)OC3OC4(C)CCC1C32OO4` (configuration not stated) returned a TGI above 100 µM.

Turning to `Cc1ccc(-c2nc3nc(-c4ccc(F)cc4)nc(N4CCNCC4)c3o2)cc1`, the GI50 is 1.99 µM and the TGI came to 4.6 µM.

Turning to `CN1CCN(Cc2ccc(NC(=O)c3cncc(C#Cc4c(N)ncc5ccc(C#N)cc45)c3)cc2C(F)(F)F)CC1`, the GI50 is 1.09 µM and the TGI came out at 2.58 µM.

`Nc1nc(N)c(CCCCc2ccccc2)c(C=O)n1` yielded a TGI of 32.9 µM.

Consider `N#CC(C#N)=NNc1ccc2cn[nH]c2c1`, for which the TGI was above 100 µM.

As to `C[C@@H](N)COc1ccc(-c2cnc3ccc(N[C@H](C)c4cccc(F)c4)nn23)cc1`, the GI50 was 3.39 µM and the TGI amounted to 14.1 µM.

On to `CC(=O)C(=O)NC1/C=C(C)\C=C/C(O)C/C=C(C)\C=C/C(O)CC2OC(=O)C1(C)C(=O)C2C` (configuration not stated), for which the TGI was above 100 µM.

In turn, `COC1/C=C/C=C(/C)Cc2cc(O)c(Cl)c(c2)N(C)C(=O)CC(OC(=O)C(C)C)C2(C)OC2C(C)C2CC1(O)NC(=O)O2` (configuration not stated) had a TGI above 100 µM.

For `CN1CCN(C(=O)[C@@]2(C)CC[C@]3(C)CC[C@]4(C)C(=CC[C@@H]5[C@@]6(C)CCC(=O)NC(C)(C)[C@@H]6CC[C@]54C)[C@@H]3C2)CC1`, the GI50 is 1.76 µM and the TGI was 3.58 µM.

`CCCCCCCCCCNCCSSCc1ccc(Cl)cc1`: the TGI was found to be 9.8 µM.

As for `COc1ccc2c(c1)CC[C@@H]1C2CC[C@]2(C)C(=O)N(CCN(C)C)C(=O)CC12` (some centres not stated), the TGI was above 100 µM.

For the compound `C/C(=N\NC(=S)N1CCN(c2ccccn2)CC1)c1ccccn1`, the GI50 is 0.0707 µM and the TGI is 14.4 µM.

`CC(=O)c1ccccc1NC(=O)C(=O)C(C(=O)c1ccc2ccccc2c1)C1OC(=O)c2ccccc21` (configuration not stated) showed a TGI of 67.9 µM.

`Cc1ccc(S(=O)(=O)N2CCC[C@@H]2C(=O)O[C@@H]2CCC3CC=CC32)cc1` (some centres not stated): the TGI was above 100 µM.

In turn, `Cc1cc2nc3c(C#N)c4c(c(Nc5ccc(F)cc5)n3c2cc1C)CCC4` displayed a TGI above 100 µM.

Take `CCN1CCC(CC(=O)Nc2n[nH]c3nnc(-c4cccc(F)c4F)cc23)CC1`: the GI50 was above 25 µM and the TGI is above 25 µM.

Take `O=c1ccc2ccc(CBr)cc2o1`: the TGI is 27.6 µM.

On to `O=C(c1ccccc1)C(Cl)C(Cl)c1ccccc1` (configuration not stated), for which the GI50 was 13.4 µM and the TGI amounted to 27.5 µM.

For the compound `COC(=O)C(Cc1ccccc1)NC(=O)C(CS)NC(=O)OC(C)(C)C` (stereo not drawn) (Boc-Cys-Phe-OMe; configuration not given here), the TGI is above 100 µM.

As for `COC(=O)c1cc(NC(=O)c2cc(NC(=O)c3cc([N+](=O)[O-])n(C)c3)cn2C)cn1C`, the GI50 was 2.13 µM and the TGI stood at 7.94 µM.

In turn, `Cc1nnc(N)nc1/C=C\c1ccc(Cl)cc1Cl` yielded a TGI above 100 µM.

In turn, `CCOP(=O)(CCCC(O)CNc1nc(N)nc(Cl)c1N=Nc1ccc(Cl)cc1)OCC` (configuration not stated) registered a TGI of 28.5 µM.

On to `Clc1cc(-c2ccccc2)nc(Nc2nc3ccccc3[nH]2)n1`, for which the TGI was above 100 µM.

On to `N#Cc1c(N)oc(-c2ccc([N+](=O)[O-])cc2)c1C#N`, for which the TGI was 80 µM.

In turn, `C=C(C)[C@@H](O)[C@H](O)C[C@H](C)C1CC[C@]2(C)C1=CC[C@@H]1[C@@]3(C)CC[C@@H](OC(C)=O)C(C)(C)[C@@H]3C[C@@H](OC3OC(COC(C)=O)C(O)C(O)C3O)[C@]12C` (some centres not stated) displayed a TGI of 5.22 µM.
